A lower IC50 marks a more sensitive line; a limit (>, <) means that the fit lies beyond the doses tested. For AUC the same curve is integrated over the 256-fold range of doses and scaled to a fraction: 1 means no effect, lower means more sensitive. For some of these results: The top dose, if marked as inferred, is not printed in the source and was worked back from the curve model. For some of these results: An entry number marks a drug with two screens in the source, which often give different values.
Assays:
Assay in all cases: Viability of human cancer cell lines after 72 h of drug (GDSC screen)
CHIR-99021 = compound: Cc1cnc(-c2cnc(NCCNc3ccc(C#N)cn3)nc2-c2ccc(Cl)cc2Cl)[nH]1 [CHIR-99021]
Experimental: (§1)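 Human cancer cell lines in 384-well plates, medium with 10% serum, drug for 72 h over a 256-fold dose range (nine 2-fold or five 4-fold steps up to the top dose). Adherent lines were fixed and stained with the nucleic acid dye Syto60, suspension lines read with resazurin; signal relative to control wells, capped at 0 and 100%. One two-parameter sigmoid per drug and line, fitted in a mixed model over all curves with the slope shared within a line.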

KU-55933 = compound: O=c1cc(-c2cccc3c2Sc2ccccc2S3)oc(N2CCOCC2)c1 [KU-55933]; conditions: top dose 10 µM
Experimental: as §1

(5Z)-7-Oxozeaenol = compound: COc1cc(O)c2c(c1)/C=C/C[C@H](O)[C@H](O)C(=O)/C=C\C[C@H](C)OC2=O [(5Z)-7-Oxozeaenol]; conditions: top dose 10 µM; top dose inferred
Experimental: as §1

QL-X-138 = compound: C=CC(=O)Nc1cc(-n2c(=O)ccc3cnc4ccc(-c5cn[nH]c5)cc4c32)ccc1C [QL-X-138]; conditions: top dose 10.24 µM; top dose inferred
Experimental: as §1

CMK = compound: Cc1ccc(-c2c(C(=O)CCl)n(CCCO)c3ncnc(N)c23)cc1 [CMK]; conditions: top dose 4 µM; top dose inferred
Experimental: as §1

ABT-888 = compound: C[C@]1(c2nc3c(C(N)=O)cccc3[nH]2)CCCN1 [ABT-888]; conditions: top dose 5 µM; top dose inferred
Experimental: as §1

Thapsigargin = compound: C/C=C(/C)C(=O)O[C@H]1C(C)=C2[C@H]([C@@H]1OC(=O)CCCCCCC)[C@@](C)(OC(C)=O)C[C@H](OC(=O)CCC)[C@@]1(O)[C@H]2OC(=O)[C@@]1(C)O [Thapsigargin]; conditions: top dose 0.512 µM; top dose inferred
Experimental: as §1

MPS-1-IN-1 = compound: COc1cc(N2CCC(O)CC2)ccc1Nc1cc(Nc2ccccc2S(=O)(=O)C(C)C)c2cc[nH]c2n1 [MPS-1-IN-1]; conditions: top dose 20 µM; top dose inferred
Experimental: as §1

Zibotentan = compound: COc1nc(C)cnc1NS(=O)(=O)c1cccnc1-c1ccc(-c2nnco2)cc1 [Zibotentan]; conditions: top dose 20 µM; top dose inferred
Experimental: as §1

CP466722 = compound: COc1cc2ncnc(-n3nc(-c4ccccn4)nc3N)c2cc1OC [CP466722]; conditions: top dose 16 µM; top dose inferred
Experimental: as §1

ABT-869 = compound: Cc1ccc(F)c(NC(=O)Nc2ccc(-c3cccc4[nH]nc(N)c34)cc2)c1 [ABT-869]; conditions: top dose 1.024 µM; top dose inferred
Experimental: as §1

GSK269962A = compound: CCn1c(-c2nonc2N)nc2cnc(Oc3cccc(NC(=O)c4ccc(OCCN5CCOCC5)cc4)c3)cc21 [GSK269962A]; conditions: top dose inferred
Experimental: as §1

[1] = top dose 2.56 µM, screen: GDSC drug entry 154
[2] = top dose 10 µM, screen: GDSC drug entry 1241, top dose inferred
[3] = top dose 2.5 µM, screen: GDSC drug entry 127
[4] = top dose 5 µM, screen: GDSC drug entry 1192

Cell Line | AUC (CHIR-99021; [1]) | IC50 (CHIR-99021; [1]) | AUC (CHIR-99021; [2]) | IC50 (CHIR-99021; [2]) | AUC (KU-55933) | IC50 (KU-55933) | AUC ((5Z)-7-Oxozeaenol) | IC50 ((5Z)-7-Oxozeaenol) | AUC (QL-X-138) | IC50 (QL-X-138) | AUC (CMK) | IC50 (CMK) | AUC (ABT-888) | IC50 (ABT-888) | AUC (Thapsigargin) | IC50 (Thapsigargin) | AUC (MPS-1-IN-1) | IC50 (MPS-1-IN-1) | AUC (Zibotentan) | IC50 (Zibotentan) | AUC (CP466722) | IC50 (CP466722) | AUC (ABT-869) | IC50 (ABT-869) | AUC (GSK269962A; [3]) | IC50 (GSK269962A; [3]) | AUC (GSK269962A; [4]) | IC50 (GSK269962A; [4])
SIMA (neuroblastoma, adherent) | 0.963 | > 2.56 µM | 0.96 | > 10 µM | 0.982 | > 10 µM | 0.588 | 1.13 µM | 0.858 | > 10.2 µM | 0.958 | > 4 µM | 0.985 | > 5 µM | 0.524 | 0.0374 µM | 0.814 | 12.7 µM | 0.971 | > 20 µM | 0.852 | 15 µM | 0.985 | > 1.02 µM | 0.888 | > 2.5 µM | 0.883 | > 5 µM
SJSA-1 (bone, adherent) | 0.982 | > 2.56 µM | 0.982 | > 10 µM | 0.971 | > 10 µM | 0.707 | 2.6 µM | 0.656 | 1.84 µM | 0.94 | > 4 µM | 0.968 | > 5 µM | 0.363 | 0.0127 µM | 0.87 | > 20 µM | 0.982 | > 20 µM | 0.859 | > 16 µM | 0.979 | > 1.02 µM | 0.797 | 1.36 µM | 0.928 | > 5 µM
SK-LMS-1 (soft tissue, adherent) | 0.799 | 1.16 µM | 0.765 | 3.48 µM | 0.885 | > 10 µM | 0.428 | 0.4 µM | 0.653 | 1.66 µM | 0.767 | 1.42 µM | 0.974 | > 5 µM | 0.157 | 0.00305 µM | 0.896 | > 20 µM | 0.985 | > 20 µM | 0.776 | 6.06 µM | 0.987 | > 1.02 µM | 0.886 | > 2.5 µM | 0.654 | 0.818 µM
SK-MEL-2 (melanoma, adherent) | 0.925 | > 2.56 µM | 0.892 | > 10 µM | 0.974 | > 10 µM | 0.354 | 0.243 µM | 0.808 | 5.54 µM | 0.869 | 3.95 µM | 0.976 | > 5 µM | 0.209 | 0.00426 µM | 0.987 | > 20 µM | 0.985 | > 20 µM | 0.844 | 12.1 µM | 0.984 | > 1.02 µM | 0.978 | > 2.5 µM | 0.911 | > 5 µM
SK-UT-1 (soft tissue, adherent) | 0.966 | > 2.56 µM | 0.943 | > 10 µM | 0.939 | > 10 µM | 0.575 | 0.983 µM | 0.756 | 3.21 µM | 0.864 | 2.99 µM | 0.976 | > 5 µM | 0.352 | 0.013 µM | 0.989 | > 20 µM | 0.989 | > 20 µM | 0.904 | > 16 µM | 0.989 | > 1.02 µM | 0.874 | 2.07 µM | 0.898 | > 5 µM
SNB75 (glioma, adherent) | 0.925 | > 2.56 µM | 0.915 | > 10 µM | 0.958 | > 10 µM | 0.672 | 2.37 µM | 0.92 | > 10.2 µM | 0.92 | > 4 µM | 0.979 | > 5 µM | 0.473 | 0.0261 µM | 0.975 | > 20 µM | 0.973 | > 20 µM | 0.913 | > 16 µM | 0.966 | > 1.02 µM | 0.829 | > 2.5 µM | 0.841 | > 5 µM
SNU-C2B (large intestine, adherent) | 0.968 | > 2.56 µM | 0.945 | > 10 µM | 0.979 | > 10 µM | 0.544 | 0.857 µM | 0.814 | 7.9 µM | 0.91 | > 4 µM | 0.98 | > 5 µM | 0.356 | 0.0113 µM | 0.916 | > 20 µM | 0.98 | > 20 µM | 0.882 | > 16 µM | 0.976 | > 1.02 µM |  |  | 0.9 | > 5 µM
SU-DHL-6 (B-cell lymphoma, suspension) | 0.942 | > 2.56 µM | 0.9 | 6.92 µM | 0.89 | 6.41 µM | 0.858 | 5.08 µM | 0.269 | 0.174 µM | 0.714 | 0.834 µM | 0.995 | > 5 µM | 0.2 | 0.00577 µM | 0.868 | 10.9 µM | 0.994 | > 20 µM | 0.495 | 0.971 µM | 0.995 | > 1.02 µM | 0.96 | > 2.5 µM | 0.936 | 4.81 µM
U-87-MG (glioma, adherent) | 0.985 | > 2.56 µM | 0.958 | > 10 µM | 0.985 | > 10 µM | 0.635 | 1.58 µM | 0.672 | 2.11 µM | 0.936 | > 4 µM | 0.983 | > 5 µM | 0.709 | 0.139 µM | 0.907 | > 20 µM | 0.969 | > 20 µM | 0.862 | > 16 µM | 0.981 | > 1.02 µM | 0.982 | > 2.5 µM | 0.945 | > 5 µM

Reference: the supplement of paper PMC4967469
